The shares of active, inactive and inconclusive entries below differ from those in the screen. Potencies of inconclusive entries are left out as doubtful fits. Activity calls are given as the source filed them. Calls follow the shape of the dose curve; as a rule, active = well fitted inhibition curve with a large enough effect; inconclusive = small, poorly fitted or top-dose-only effect, or another doubt; inactive = no such curve, though single readings can be large or run the other way.
biological target: DNA polymerase eta (Homo sapiens) (UniProt Q9Y253); experiment: qHTS for Inhibitors of Polymerase Eta: Confirmatory Assay for Cherry-picked Compounds (AID 720502); conditions: Pol eta primer extension, TAMRA/BHQ fluorescence, 10 min
UniProt Q9Y253, sequence (Q9Y253 whole entry, looked up): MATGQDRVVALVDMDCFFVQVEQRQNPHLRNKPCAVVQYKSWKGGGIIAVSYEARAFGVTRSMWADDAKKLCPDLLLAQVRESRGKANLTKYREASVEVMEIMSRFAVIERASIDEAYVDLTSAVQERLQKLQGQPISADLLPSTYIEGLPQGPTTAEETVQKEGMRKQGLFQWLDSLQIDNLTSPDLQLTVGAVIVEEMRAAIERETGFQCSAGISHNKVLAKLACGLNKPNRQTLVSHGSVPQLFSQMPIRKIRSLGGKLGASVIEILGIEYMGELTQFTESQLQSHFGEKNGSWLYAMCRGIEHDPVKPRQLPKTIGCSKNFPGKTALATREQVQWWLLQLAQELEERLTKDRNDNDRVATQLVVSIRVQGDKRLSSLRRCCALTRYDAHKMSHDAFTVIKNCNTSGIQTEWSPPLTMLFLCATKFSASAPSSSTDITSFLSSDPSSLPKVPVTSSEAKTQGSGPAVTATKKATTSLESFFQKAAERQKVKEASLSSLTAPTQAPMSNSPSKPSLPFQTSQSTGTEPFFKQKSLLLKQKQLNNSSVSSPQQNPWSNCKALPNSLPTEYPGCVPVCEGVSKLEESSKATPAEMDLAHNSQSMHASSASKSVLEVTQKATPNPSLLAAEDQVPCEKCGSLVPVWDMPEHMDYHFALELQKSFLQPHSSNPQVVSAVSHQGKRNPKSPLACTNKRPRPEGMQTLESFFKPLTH
Outline: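 Readout: TAMRA dequenching, ex 525/em 598 nm, read at 0 and 10 min. Enzyme: 10 nM human Pol eta, preincubated with compound 15 min RT. Substrate: 50 nM final annealed primer/reporter/template duplex.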
Potency is read from the fitted curve at half-maximal effect; tags tell the direction and shape of the fitted curve.

| SMILES | Potency |
| --- | --- |
| COc1cccc(OC)c1OC(=O)C1CC(=O)N(c2ccc3c(c2)OCCO3)C1 (centres undefined) | inconclusive [inhibitor, single point] |
| CC(C)c1ccc(NS(=O)(=O)c2ccc3[nH]cc(C(=O)NC4CCCC4)c(=O)c3c2)cc1 | inconclusive [inhibitor, single point] |
| O=C1SC(SCc2ccccc2Cl)=N/C1=C\c1ccc(C(=O)O)cc1 | inconclusive [inhibitor, single point] |
| O=C(COC(=O)c1ccc(S(=O)(=O)NCc2ccco2)cc1)Nc1ccc(Cl)cn1 | active: 75.7 µM |
| Cc1cccc(N2CCN(S(=O)(=O)c3ccc4c(c3)C(C)(C)C(=O)N4C)CC2)c1C | inconclusive [inhibitor, partial curve] |
| COc1cc(-c2cc(=O)c3c(O)c(OC)c(OC)c(O)c3o2)ccc1O | active: 26.9 µM |
| CN(CCOc1ccccc1)C(=O)CCc1nc2sc3c(c2c(=O)[nH]1)CCCC3 | inconclusive [inhibitor, single point] |
| Cc1cccc(-c2n[nH]c(=S)n2/N=C/C=C/c2ccco2)c1 | inconclusive [inhibitor, single point] |
| CC(=O)Nc1ccc(OCc2cccc(-c3nc4ccccc4c(=O)n3Cc3ccco3)c2)cc1 | inconclusive [inhibitor, single point] |
| CCOC(=O)c1c(C)[nH]c2c1-c1ccccc1C(=O)C2=O | inconclusive [inhibitor, single point] |
| Cc1ccc(/C=C/c2nc3sc(C(=O)O)c(C)c3c(=O)[nH]2)cc1[N+](=O)[O-] | inconclusive [inhibitor, single point] |
| O=C(N/N=C/c1cc(Cl)cc([N+](=O)[O-])c1O)c1ccccc1NS(=O)(=O)c1cccs1 | inconclusive [inhibitor, single point] |
| O=C(O)C1=NN(c2cc(Cl)c(S(=O)(=O)O)cc2Cl)C(=O)C1 | inconclusive [inhibitor, partial curve, poor fit] |
| O=C(O)c1ccc(N/N=C/c2cc3ccccc3nc2Cl)cc1 | inconclusive [inhibitor, full curve] |
| O=C(CCCCCn1c(SCc2ccncc2)nc2ccccc2c1=O)NCc1ccco1 | active: 75.7 µM |
| O=C(COC(=O)c1ccccc1Nc1cccc(C(F)(F)F)c1)NCc1ccco1 | active: 67.5 µM |
| CCc1ccc(/C(C)=N/NC(=O)CNC(=O)/C=C/c2ccco2)cc1 | active: 21.3 µM |
| O=C(COC(=O)c1ccc([N+](=O)[O-])o1)NC1CCCCC1 | inconclusive [inhibitor, single point] |
| C=C(C)C(=O)Nc1cccc(C2=NOC3(C2)C[C@@H](C(N)=O)N(C(=O)C(=C)C)C3)c1 (some centres undefined) | active: 16.9 µM |
| COc1ccc(C(=O)NNC(=O)Cc2coc3cc(OC)ccc23)cc1 | inconclusive [inhibitor, single point] |
| C=C(C)C(=O)Nc1cccc(C2=NOC3(C2)C[C@@H](C(N)=O)N(C(=O)CCCCC)C3)c1 (some centres undefined) | active: 3.01 µM |
| Cc1ccn2cc(-c3ccc(O)c(O)c3)nc2c1 | inconclusive [inhibitor, single point] |
| O=C(CSc1nc2ccsc2c(=O)n1Cc1ccc(C(=O)O)cc1)NCc1ccco1 | inconclusive [inhibitor, single point] |
| O=C(Cc1ccc(S(=O)(=O)N2CCCC2)s1)NC1CCCCCC1 | active: 60.1 µM |
| CCCc1cc(=O)oc2cc(OCC(=O)NC(Cc3c[nH]c4ccc(O)cc34)C(=O)O)c(Cl)cc12 (centres undefined) | inconclusive [inhibitor, single point] |
| CCOc1ccc(/C=c2\sc3nc(-c4ccco4)nn3c2=O)cc1OCC | inconclusive [inhibitor, single point] |
| NC(=O)N/N=C/c1ccc(-c2ccc(S(=O)(=O)Nc3ncccn3)cc2)o1 | active: 67.5 µM |
| O=C(O)COc1ccc2c(c1)O/C(=C\c1ccco1)C2=O | active: 30.1 µM |
| CC1=C(C#N)C(=O)NC(=O)/C1=C\c1ccc(-c2ccc(C)cc2[N+](=O)[O-])o1 | inconclusive [inhibitor, single point] |
